Measurements as given in the supplement of paper PMC11417369.
This is one part of the list.

Test system: PfSIP2 AP2 domain 1 (GST-tagged)
Experiment: gcPBM binding intensity (ln(normalized median fluorescence intensity)); higher = stronger DNA binding
Outline: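 Each value is the highest Masliner-normalised natural-log median intensity across replicate spots of either orientation of a probe. The probes were primer-extended double-stranded 36-bp intergenic genomic sequences on an Agilent 4 × 180k array, alongside negative controls, exposed for 1 h to GST-tagged P. falciparum DNA-binding domains expressed in E. coli. Bound protein was picked up with Alexa488 anti-GST antibody and scanned at 488 nm.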

Q: “TATTTTTTTAAAATAGGTACACAATCAAACATTTAT [XGTACX_site8785]” was tested. Which “gcPBM binding intensity (ln)” value did it give?
A: Its value is 6.85.

Q: How did the “gcPBM binding intensity (ln)” value turn out when “ACCTCATAATATTTAACACACAAAATTATCTGTATG [CACACA_site5015]” was run?
A: The value was 7.43.

Q: Which “gcPBM binding intensity (ln)” value does the source give for “CGTCCAAAATATCCTTCACACACGAACAGTTTCATT [CACACA_site2729]” here?
A: The value was 7.13.

Q: “TTTAAATAAAAATGGAGTACTCTAAAAAAAAAAAAA [XGTACX_site1233]” was tested. Which “gcPBM binding intensity (ln)” value did it give?
A: Its value is 7.24.

Q: Which “gcPBM binding intensity (ln)” value does the source give for “CTATAATATTATAACAGTACATAATATTATATATAT [XGTACX_site1414]” here?
A: The value was 7.54.

Q: “TTTATATAATATTCTACACACCAACAACAAACATAT [CACACA_site4478]” was tested. Which “gcPBM binding intensity (ln)” value did it give?
A: The value was 7.51.

Q: Which “gcPBM binding intensity (ln)” value does the source give for “ATATATATATATAATACACACATAAATGAATATATA [CACACA_site316]” here?
A: Its value is 8.88.

Q: Which “gcPBM binding intensity (ln)” value does the source give for “GCATTGATCAAACATACACACATGGTTAATAAAAAT [CACACA_site2085]” here?
A: The value was 7.15.

Q: With “GTGATTTCTATGAATTGTACTTAAATATAGTTATAT [XGTACX_site231]” as the sequence, how does the “gcPBM binding intensity (ln)” value read?
A: Its value is 7.09.

Q: “GTATATATCTCAGAGCATAATAGTATAATTCGGTCA [CACACA_negctrl_site876]” was tested. Which “gcPBM binding intensity (ln)” value did it give?
A: Its value is 6.82.

Q: For “AATTATTTTAGAAACACACAAATTAGAAAAAACATA [CACACA_site7673]”, which “gcPBM binding intensity (ln)” value is on record?
A: Its value is 7.22.

Q: With “AATATATATATAAATAGTACATATAAAGAGAATTTT [XGTACX_site3168]” as the sequence, how does the “gcPBM binding intensity (ln)” value read?
A: The value was 7.12.

Q: Which “gcPBM binding intensity (ln)” value does the source give for “CAGAAATATTCTTATACACACTGTTCTTATATTCCT [CACACA_site4318]” here?
A: The value was 6.92.

Q: How did the “gcPBM binding intensity (ln)” value turn out when “ATTAAAACAAAATGTACACACATATAATTTAATGAC [CACACA_site878]” was run?
A: The value was 7.11.

Q: How did the “gcPBM binding intensity (ln)” value turn out when “TTTATCTTTTTTTGTTGTACAGATGTTTATATTTTA [XGTACX_site4065]” was run?
A: The value was 7.13.

Q: “AATAACATTATTTTATGTACACATGAAAAATAAAAT [XGTACX_site4657]” was tested. Which “gcPBM binding intensity (ln)” value did it give?
A: The value was 7.24.

Q: How did the “gcPBM binding intensity (ln)” value turn out when “TGATATTTCATCATAGTGCAATATGGCATATAAATA [GTGCAC_site9433]” was run?
A: The value was 7.66.

Q: Which “gcPBM binding intensity (ln)” value does the source give for “AATATCAAAATAACATGTACATGTTATATTTTATTT [XGTACX_site5891]” here?
A: Its value is 6.9.

Q: How did the “gcPBM binding intensity (ln)” value turn out when “TGTAATAAACTACTTTTTTTTTTTTTTTTTTTTTTT [CACACA_negctrl_site1021]” was run?
A: The value was 8.45.

Q: “TTATTTATTTATTATAGTTCACTTGAAAATACAAGA [CACACA_negctrl_site1480]” was tested. Which “gcPBM binding intensity (ln)” value did it give?
A: The value was 6.88.

Q: How did the “gcPBM binding intensity (ln)” value turn out when “CATATATACAGTAACACACACAAAAAAATATGAATA [CACACA_site3996]” was run?
A: Its value is 7.09.

Q: Which “gcPBM binding intensity (ln)” value does the source give for “TAATTTATAACACGCGCACACATATATATATAGTAA [CACACA_site121]” here?
A: The value was 7.32.

Q: With “AATAGTGTCATAAAAACTATTATCATATAATGTGAA [CACACA_negctrl_site1578]” as the sequence, how does the “gcPBM binding intensity (ln)” value read?
A: The value was 6.83.

Q: For “TTTCTTTTTAACTCTTACATAATAGGTGGTAGAAGG [TGCATGCA_negctrl_site176]”, which “gcPBM binding intensity (ln)” value is on record?
A: The value was 7.39.
